The full ranking holds about 33,000 sequences; the median of “E-score (-0.5 to 0.5)” is about -0.041, and the highest 2% start at about 0.37. This is one part of the list.
biological target: T1, Ecm22 (UniProt Q05958); test: PBM E-score (8-mer binding enrichment) (E-score (-0.5 to 0.5)); higher = stronger / more preferred TF binding; most listed sequences are background and not binding sites; conditions: protein concentration: 200 nM; construct: GST-full length
T1 sequence: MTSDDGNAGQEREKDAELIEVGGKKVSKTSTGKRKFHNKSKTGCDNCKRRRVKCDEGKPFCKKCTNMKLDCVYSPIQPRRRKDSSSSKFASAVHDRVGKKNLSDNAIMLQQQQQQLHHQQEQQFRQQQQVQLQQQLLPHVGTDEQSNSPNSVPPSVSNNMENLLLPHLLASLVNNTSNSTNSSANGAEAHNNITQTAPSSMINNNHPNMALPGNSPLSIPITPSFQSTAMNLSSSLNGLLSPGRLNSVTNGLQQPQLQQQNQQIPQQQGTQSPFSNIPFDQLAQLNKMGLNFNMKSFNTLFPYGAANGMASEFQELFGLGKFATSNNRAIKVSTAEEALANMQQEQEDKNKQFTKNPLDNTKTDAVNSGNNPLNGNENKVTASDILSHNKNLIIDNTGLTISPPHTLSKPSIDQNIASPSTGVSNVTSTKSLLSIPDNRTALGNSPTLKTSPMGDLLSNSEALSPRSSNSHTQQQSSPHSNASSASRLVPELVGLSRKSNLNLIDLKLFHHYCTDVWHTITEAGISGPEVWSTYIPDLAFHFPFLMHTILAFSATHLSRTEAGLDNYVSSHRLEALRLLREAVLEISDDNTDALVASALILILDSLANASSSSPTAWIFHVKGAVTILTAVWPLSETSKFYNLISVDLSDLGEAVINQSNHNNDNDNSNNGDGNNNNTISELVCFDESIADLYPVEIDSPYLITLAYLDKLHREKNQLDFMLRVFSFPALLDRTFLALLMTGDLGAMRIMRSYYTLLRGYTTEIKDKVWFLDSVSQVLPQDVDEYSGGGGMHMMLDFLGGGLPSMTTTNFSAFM
How it was run: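 Bound GST-tagged yeast transcription factors, applied at about 100-200 nM to double-stranded universal all-10-mer Agilent arrays, were detected with fluorescent anti-GST. Scans were normalised with masliner. A modified Wilcoxon-Mann-Whitney statistic, the E-score, was assigned to each ungapped eight-base word pooled with its reverse complement by the Universal PBM Analysis Suite.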

| Sequence | PBM E-score |
| --- | --- |
| CTCGATGC | -0.122 |
| GGCTACTA | -0.0795 |
| CCAAAGTC | -0.208 |
| GGCTGGAA | -0.239 |
| ATGTGTCC | -0.14 |
| CGTTTTGC | 0.106 |
| AACTAAGT | -0.0136 |
| CCTTCACG | -0.0503 |
| CCCTGCAG | -0.136 |
| CGTGAGAG | -0.292 |
| GGCCAAGA | -0.209 |
| CAAAAACC | -0.057 |
| GCATTACA | -0.137 |
| CTCGCACA | 0.274 |
| GCTGGGGA | -0.211 |
| CTGACAGC | -0.0914 |
| GGGTTAGA | -0.266 |
| GATAGGAC | -0.261 |
| ACATCACT | 0.0638 |
| CATCAACG | -0.0401 |
| CAGCAATC | -0.119 |
| ACGACATG | 0.339 |

| Sequence | PBM E-score |
| --- | --- |
| TGGTACCA | -0.0735 |
| CTATTCAC | -0.0921 |
| AAAACCCG | 0.091 |
| AAGAGTGT | -0.187 |
| CAAGAAGA | -0.106 |
| CACGAACC | 0.0995 |
| AACATGAT | -0.0615 |
| TAATCCTA | 0.00777 |
| AAGCGATC | 0.161 |
| AAACACAC | 0.114 |
| ACCTACAT | -0.0722 |
| ACGGTACT | 0.0921 |
| GGATAGAC | -0.0159 |
| GGGGCTAC | -0.0133 |
| CGCAAGAG | -0.11 |
| CCTGTTAG | 0.0832 |
| ACTCGTAA | 0.437 |
| ATCTGGCG | -0.196 |
| GAGGCGGA | -0.00549 |
| CCAACAGC | -0.198 |
| AAGTACCC | -0.0864 |
| CATATATC | 0.0903 |

| Sequence | PBM E-score |
| --- | --- |
| CGCTGGTC | -0.19 |
| ATCTCTGG | -0.189 |
| AGGTGTAA | -0.0655 |
| CCAGACAG | -0.153 |
| TGGTGACA | -0.157 |
| ATCGCGAT | 0.211 |
| ACTCCCCT | -0.127 |
| CGCCACAA | 0.0727 |
| CAAAGTGC | -0.186 |
| GATCCTAC | 0.087 |
| CTGTGGCA | -0.179 |
| TAGATCCA | -0.0355 |
| GGGGCCGA | -0.171 |
| ACTATCAC | 0.0506 |
| AAGGTACT | 0.0334 |
| TCGCCACA | 0.099 |
| CGTGATTC | -0.0551 |
| ACGGGGGC | 0.0814 |
| CCTTTGAA | -0.207 |
| CATAGTAA | 0.0989 |
| AGTGGTCG | 0.106 |
| TAGTTCAA | -0.0864 |

| Sequence | PBM E-score |
| --- | --- |
| CCTATACG | 0.465 |
| GGAGTCCC | -0.219 |
| AACTCACG | 0.088 |
| TAGTGAGA | 0.0501 |
| GGGAAGGA | -0.0877 |
| CGGCGGTA | 0.184 |
| AAAAAATG | 0.0766 |
| GTTATAGA | -0.0217 |
| CCAACGGC | -0.277 |
| ATCTAACA | 0.0717 |
| ATGGAGCG | 0.156 |
| CCCTATAC | 0.257 |
| CCCGGTGC | -0.248 |
| ATTGGCGG | -0.102 |
| CGGAAGCA | 0.121 |
| ATCGGACA | 0.17 |
| ACCCCAAG | -0.118 |
| CGGATTAG | -0.0627 |
| GCGGCTGA | -0.0382 |
| TCCGCAAA | -0.0567 |

From the supplement of paper PMC3334620
